No constants are given. Whether binding was seen depends on the method and setting. For part of these data: Binding seen in cells or lysates may run through a third protein. Some binding calls cover weakened binding; strength is not graded here. For part of these data: Sequences can lack the tags named with a protein.
T1: recombinant ephrin-A5-Fc (UniProt P52803)
T1 sequence: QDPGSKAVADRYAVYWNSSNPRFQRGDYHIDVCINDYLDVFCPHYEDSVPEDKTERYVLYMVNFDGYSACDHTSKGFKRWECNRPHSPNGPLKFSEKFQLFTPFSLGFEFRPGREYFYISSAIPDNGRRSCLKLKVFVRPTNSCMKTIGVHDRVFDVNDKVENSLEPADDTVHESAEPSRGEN

Chains of the proteins cited; added tags and fusions are not shown. Lines headed by an entry give the natural chain unless they say otherwise; changes in a name come on top. A line that says so, or that is headed by a name, gives the form on record, which may keep a tag or linker. Residues count along the entry.
UniProt P13595, residues 20-1115: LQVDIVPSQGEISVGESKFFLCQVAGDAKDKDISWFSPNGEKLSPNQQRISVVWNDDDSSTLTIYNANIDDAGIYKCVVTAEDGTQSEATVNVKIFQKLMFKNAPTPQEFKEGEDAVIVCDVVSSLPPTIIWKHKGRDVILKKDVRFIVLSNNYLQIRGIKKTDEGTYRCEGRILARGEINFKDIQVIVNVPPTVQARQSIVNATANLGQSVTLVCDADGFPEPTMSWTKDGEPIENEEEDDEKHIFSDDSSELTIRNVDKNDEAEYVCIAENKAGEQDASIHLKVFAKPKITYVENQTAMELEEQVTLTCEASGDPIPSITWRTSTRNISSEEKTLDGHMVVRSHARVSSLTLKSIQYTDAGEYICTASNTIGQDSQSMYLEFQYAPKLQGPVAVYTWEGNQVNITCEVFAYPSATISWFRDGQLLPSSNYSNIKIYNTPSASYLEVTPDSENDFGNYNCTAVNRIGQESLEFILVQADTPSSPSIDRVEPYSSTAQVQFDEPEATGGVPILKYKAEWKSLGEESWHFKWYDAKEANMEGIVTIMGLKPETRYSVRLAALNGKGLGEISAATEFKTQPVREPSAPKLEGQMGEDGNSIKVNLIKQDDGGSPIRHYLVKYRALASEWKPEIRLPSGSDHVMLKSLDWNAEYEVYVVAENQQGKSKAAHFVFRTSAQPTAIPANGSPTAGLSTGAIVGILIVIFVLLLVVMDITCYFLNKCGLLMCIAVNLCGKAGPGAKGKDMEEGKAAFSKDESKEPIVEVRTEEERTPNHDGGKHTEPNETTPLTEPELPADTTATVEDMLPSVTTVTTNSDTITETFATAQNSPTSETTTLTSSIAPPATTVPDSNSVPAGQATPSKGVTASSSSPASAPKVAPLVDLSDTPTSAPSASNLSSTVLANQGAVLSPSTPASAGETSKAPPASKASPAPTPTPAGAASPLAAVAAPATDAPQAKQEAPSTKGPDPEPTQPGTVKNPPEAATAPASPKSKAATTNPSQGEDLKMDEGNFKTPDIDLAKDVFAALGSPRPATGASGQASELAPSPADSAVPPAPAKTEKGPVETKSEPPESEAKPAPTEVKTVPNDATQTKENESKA
human NCAM Ig1-5/FN1-2 Fc fusion protein (full-length NCAM-EC) (P13591, residues 20-718): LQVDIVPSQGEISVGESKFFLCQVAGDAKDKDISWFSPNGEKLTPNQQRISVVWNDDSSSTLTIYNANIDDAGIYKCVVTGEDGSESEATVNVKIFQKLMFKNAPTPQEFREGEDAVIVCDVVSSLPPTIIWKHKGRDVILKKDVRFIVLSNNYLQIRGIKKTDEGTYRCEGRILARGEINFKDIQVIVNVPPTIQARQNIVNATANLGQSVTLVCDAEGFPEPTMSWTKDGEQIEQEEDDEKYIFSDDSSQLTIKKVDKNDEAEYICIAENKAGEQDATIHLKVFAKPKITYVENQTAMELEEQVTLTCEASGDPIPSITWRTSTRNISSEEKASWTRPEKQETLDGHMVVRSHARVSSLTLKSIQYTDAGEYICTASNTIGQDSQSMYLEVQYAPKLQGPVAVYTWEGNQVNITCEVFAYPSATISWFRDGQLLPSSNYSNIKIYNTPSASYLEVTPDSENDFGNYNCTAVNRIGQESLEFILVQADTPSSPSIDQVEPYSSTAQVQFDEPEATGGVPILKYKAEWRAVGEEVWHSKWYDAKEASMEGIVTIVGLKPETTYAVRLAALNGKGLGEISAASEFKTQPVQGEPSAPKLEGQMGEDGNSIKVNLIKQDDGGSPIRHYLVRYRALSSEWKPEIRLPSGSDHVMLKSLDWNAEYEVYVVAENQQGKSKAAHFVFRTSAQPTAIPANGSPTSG
wild type NCAM-140 expressed in HEK293T cells (P13591, form named): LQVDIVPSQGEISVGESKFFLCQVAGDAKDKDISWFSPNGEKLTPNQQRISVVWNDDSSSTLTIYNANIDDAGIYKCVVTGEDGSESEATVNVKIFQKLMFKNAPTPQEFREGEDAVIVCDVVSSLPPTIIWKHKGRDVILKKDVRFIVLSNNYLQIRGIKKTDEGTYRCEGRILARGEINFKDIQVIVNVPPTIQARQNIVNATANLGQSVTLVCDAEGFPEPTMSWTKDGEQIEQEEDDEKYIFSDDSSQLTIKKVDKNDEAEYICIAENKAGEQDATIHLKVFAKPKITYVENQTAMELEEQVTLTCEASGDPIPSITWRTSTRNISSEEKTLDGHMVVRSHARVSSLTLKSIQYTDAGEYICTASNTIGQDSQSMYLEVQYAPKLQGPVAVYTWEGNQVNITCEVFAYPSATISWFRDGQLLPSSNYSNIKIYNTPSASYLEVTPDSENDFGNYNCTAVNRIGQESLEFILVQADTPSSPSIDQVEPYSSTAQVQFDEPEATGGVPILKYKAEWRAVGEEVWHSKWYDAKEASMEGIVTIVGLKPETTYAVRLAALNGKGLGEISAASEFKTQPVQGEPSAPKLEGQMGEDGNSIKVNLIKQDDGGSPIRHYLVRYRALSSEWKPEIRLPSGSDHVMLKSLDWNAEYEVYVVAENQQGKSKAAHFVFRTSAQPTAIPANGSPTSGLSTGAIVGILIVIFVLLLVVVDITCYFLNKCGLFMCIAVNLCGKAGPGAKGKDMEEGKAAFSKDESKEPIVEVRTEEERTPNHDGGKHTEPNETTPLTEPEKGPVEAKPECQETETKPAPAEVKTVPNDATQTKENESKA
UniProt Q61361, residues 23-883: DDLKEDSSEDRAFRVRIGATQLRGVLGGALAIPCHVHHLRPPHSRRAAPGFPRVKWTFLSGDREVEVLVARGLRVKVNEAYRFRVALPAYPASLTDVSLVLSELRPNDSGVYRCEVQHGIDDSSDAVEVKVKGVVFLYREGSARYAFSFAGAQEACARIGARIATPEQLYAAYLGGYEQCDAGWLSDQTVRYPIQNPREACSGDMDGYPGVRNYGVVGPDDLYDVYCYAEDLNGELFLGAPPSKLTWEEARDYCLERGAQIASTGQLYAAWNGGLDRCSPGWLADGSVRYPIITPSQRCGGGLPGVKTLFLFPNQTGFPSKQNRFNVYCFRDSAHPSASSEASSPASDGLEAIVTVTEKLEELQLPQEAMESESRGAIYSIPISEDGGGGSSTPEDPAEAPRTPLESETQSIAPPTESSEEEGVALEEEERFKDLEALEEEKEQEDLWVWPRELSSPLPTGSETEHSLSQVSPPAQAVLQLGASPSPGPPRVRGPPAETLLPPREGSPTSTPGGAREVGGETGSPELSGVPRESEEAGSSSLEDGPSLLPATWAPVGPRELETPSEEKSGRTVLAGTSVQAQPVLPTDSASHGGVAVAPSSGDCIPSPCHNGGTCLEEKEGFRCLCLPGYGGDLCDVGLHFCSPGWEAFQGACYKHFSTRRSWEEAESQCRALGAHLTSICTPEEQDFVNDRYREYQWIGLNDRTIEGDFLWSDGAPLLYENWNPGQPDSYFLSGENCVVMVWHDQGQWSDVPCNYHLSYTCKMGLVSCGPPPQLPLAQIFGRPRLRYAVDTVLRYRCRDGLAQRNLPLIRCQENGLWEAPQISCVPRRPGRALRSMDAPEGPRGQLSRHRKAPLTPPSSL
UniProt O14594, residues 23-1321: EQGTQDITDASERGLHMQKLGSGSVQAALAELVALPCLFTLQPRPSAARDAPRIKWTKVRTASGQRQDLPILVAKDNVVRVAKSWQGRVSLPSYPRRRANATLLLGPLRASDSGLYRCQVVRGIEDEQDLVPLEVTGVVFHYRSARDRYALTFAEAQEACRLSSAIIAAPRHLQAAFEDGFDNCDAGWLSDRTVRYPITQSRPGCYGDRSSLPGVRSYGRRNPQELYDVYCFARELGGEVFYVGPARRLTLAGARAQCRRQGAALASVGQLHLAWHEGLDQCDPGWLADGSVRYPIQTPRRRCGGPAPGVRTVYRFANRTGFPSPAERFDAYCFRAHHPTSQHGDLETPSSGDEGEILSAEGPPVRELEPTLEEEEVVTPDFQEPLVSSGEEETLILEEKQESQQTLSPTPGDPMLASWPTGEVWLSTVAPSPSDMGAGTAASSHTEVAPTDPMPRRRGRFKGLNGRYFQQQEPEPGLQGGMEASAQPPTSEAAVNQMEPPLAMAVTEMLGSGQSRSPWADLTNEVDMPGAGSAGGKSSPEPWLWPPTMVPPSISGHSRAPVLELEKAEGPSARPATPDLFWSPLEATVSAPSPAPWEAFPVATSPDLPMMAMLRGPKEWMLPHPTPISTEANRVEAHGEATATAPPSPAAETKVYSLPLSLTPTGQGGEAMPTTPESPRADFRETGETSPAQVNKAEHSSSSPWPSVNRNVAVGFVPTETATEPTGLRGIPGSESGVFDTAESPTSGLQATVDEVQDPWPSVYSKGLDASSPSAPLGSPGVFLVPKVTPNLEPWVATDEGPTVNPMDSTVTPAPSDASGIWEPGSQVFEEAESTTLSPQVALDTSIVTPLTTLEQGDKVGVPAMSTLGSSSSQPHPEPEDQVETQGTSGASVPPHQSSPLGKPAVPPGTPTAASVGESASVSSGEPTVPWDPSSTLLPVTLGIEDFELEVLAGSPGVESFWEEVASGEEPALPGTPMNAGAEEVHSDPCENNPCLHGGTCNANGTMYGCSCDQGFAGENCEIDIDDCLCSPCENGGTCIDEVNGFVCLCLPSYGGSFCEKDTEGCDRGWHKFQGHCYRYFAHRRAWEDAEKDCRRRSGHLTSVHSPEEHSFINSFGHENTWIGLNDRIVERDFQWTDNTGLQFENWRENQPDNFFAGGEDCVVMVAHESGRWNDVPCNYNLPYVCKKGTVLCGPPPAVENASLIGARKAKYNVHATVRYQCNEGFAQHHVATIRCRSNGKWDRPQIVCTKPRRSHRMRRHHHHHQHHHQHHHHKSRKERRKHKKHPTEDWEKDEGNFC

T2: EphA3 expressed in HEK293T cells (UniProt P29320)
T2 sequence: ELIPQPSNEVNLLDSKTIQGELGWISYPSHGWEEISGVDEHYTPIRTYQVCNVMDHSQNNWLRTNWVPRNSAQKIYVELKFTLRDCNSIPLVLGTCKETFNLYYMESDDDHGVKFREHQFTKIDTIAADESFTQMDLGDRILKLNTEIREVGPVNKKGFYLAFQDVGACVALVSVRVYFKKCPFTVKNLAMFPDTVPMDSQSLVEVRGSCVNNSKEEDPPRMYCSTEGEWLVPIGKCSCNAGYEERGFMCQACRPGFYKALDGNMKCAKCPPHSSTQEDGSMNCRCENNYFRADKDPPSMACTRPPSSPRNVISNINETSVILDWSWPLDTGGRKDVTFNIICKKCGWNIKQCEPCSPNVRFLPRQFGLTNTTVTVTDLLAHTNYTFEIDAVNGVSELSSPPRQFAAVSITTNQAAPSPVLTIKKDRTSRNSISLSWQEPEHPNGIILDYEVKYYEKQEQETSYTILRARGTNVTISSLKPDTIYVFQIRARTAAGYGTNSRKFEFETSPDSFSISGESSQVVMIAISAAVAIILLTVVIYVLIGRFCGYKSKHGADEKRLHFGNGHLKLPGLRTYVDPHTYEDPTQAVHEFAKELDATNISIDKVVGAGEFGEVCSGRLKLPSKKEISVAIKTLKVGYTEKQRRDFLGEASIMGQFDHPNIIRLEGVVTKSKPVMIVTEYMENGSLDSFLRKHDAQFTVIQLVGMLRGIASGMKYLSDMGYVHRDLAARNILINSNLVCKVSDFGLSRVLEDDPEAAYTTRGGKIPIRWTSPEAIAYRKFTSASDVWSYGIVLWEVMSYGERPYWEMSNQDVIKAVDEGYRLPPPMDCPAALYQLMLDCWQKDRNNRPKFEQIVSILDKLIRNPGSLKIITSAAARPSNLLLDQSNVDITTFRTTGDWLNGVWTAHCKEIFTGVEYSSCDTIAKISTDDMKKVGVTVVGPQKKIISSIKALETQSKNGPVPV

B1: EphA3 expressed in HEK293T cells (receptor, UniProt P29320 21-983)
chain: T2 sequence

How the values were obtained:
[1] = target: NCAM (neural cell adhesion molecule), endogenous in brain lysate (mouse (endogenous in brain)) (UniProt P13595); test: co-IP; NCAM immunoprecipitated from mouse brain lysate (1 mg, RIPA buffer), Protein A/G agarose; immunoblot for neurocan, versican, aggrecan/brevican; P8 and P34 lysates compared
[2] = target: human NCAM Ig1-5/FN1-2 Fc fusion protein (full-length NCAM-EC) (human) (UniProt P13591); test: pull-down; 1 ug of neurocan (human or mouse) incubated with 1 ug of Fc protein in TBS for 1 hr at 37 C; Fc proteins pulled down with Protein A/G Sepharose beads; immunoblot, densitometry; both purified
[3] = target: wild type NCAM-140 expressed in HEK293T cells (UniProt P13591); test: co-IP; lysates (1 mg, RIPA buffer) of HEK293T cells transfected with NCAM140, NCAM mutants or EphA3, incubated with recombinant neurocan; precipitated with antibodies against NCAM (H-300) or EphA3 (C-19) and Protein A/G agarose; immunoblot for neurocan, densitometry; only the binder purified
recombinant ephrin-A5-Fc = target: T1, recombinant ephrin-A5-Fc; test: pull-down; 1 ug of neurocan (human or mouse) incubated with 1 ug of Fc protein in TBS for 1 hr at 37 C; Fc proteins pulled down with Protein A/G Sepharose beads; immunoblot, densitometry; both purified
[4] = target: T2, EphA3 expressed in HEK293T cells; test: co-IP; lysates (1 mg, RIPA buffer) of HEK293T cells transfected with NCAM140, NCAM mutants or EphA3, incubated with recombinant neurocan; precipitated with antibodies against NCAM (H-300) or EphA3 (C-19) and Protein A/G agarose; immunoblot for neurocan, densitometry; only the binder purified
[5] = target: wild type NCAM-140 expressed in HEK293T cells (UniProt P13591); test: co-IP; competitive binding assay: HEK293T cells co-transfected with NCAM-140 and EphA3, lysed, NCAM immunoprecipitated, bound EphA3 by immunoblot; cells untreated or treated with neurocan (20 nM, 30 min)

Molecule	binding [1]	binding [2]	binding [3]	other results
brevican, endogenous in brain lysate (from UniProt Q61361 23-883)	no binding			
recombinant human neurocan (full-length protein) (from UniProt O14594 23-1321)		binds	binds	
recombinant neurocan (species not stated for the experiment) (from UniProt O14594 23-1321)		binds	binds	binding (recombinant ephrin-A5-Fc): no binding (tested: 1 ug of neurocan with 1 ug of Fc protein); binding [4]: no binding
versican, endogenous in brain lysate (from UniProt Q62059 24-3357)	no binding			
B1				binding [5]: binds

Reference: PMC5906663
